Reference: the supplement of paper PMC4967469
The IC50 comes from the fitted curve, where viability falls to half of the control; where the fit passes the top or lowest dose, that dose stands as a limit. For AUC the same curve is integrated over the 256-fold range of doses and scaled to a fraction; it is 1 without any effect and falls as sensitivity rises. For some assays here: A top dose marked as inferred comes from the curve model; the source does not state it. For some assays here: An entry number marks a drug with two screens in the source, which often give different values.

Columns and labels:
Test in all cases: Viability of human cancer cell lines after 72 h of drug (GDSC screen)
(5Z)-7-Oxozeaenol = compound: COc1cc(O)c2c(c1)/C=C/C[C@H](O)[C@H](O)C(=O)/C=C\C[C@H](C)OC2=O [(5Z)-7-Oxozeaenol]; conditions: top dose 10 µM; top dose inferred
Method: (§1)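 Human cancer cell lines in 384-well plates, medium with 10% serum, drug for 72 h over a 256-fold dose range (nine 2-fold or five 4-fold steps up to the top dose). Adherent lines were fixed and stained with the nucleic acid dye Syto60, suspension lines read with resazurin; signal relative to control wells, capped at 0 and 100%. One two-parameter sigmoid per drug and line, fitted in a mixed model over all curves with the slope shared within a line.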

MPS-1-IN-1 = compound: COc1cc(N2CCC(O)CC2)ccc1Nc1cc(Nc2ccccc2S(=O)(=O)C(C)C)c2cc[nH]c2n1 [MPS-1-IN-1]; conditions: top dose 20 µM; top dose inferred
Method: as §1

Cytarabine = compound: Nc1ccn([C@@H]2O[C@H](CO)[C@@H](O)[C@@H]2O)c(=O)n1 [Cytarabine]; conditions: top dose 2 µM
Method: as §1

QL-X-138 = compound: C=CC(=O)Nc1cc(-n2c(=O)ccc3cnc4ccc(-c5cn[nH]c5)cc4c32)ccc1C [QL-X-138]; conditions: top dose 10.24 µM; top dose inferred
Method: as §1

Zibotentan = compound: COc1nc(C)cnc1NS(=O)(=O)c1cccnc1-c1ccc(-c2nnco2)cc1 [Zibotentan]; conditions: top dose 20 µM; top dose inferred
Method: as §1

ABT-869 = compound: Cc1ccc(F)c(NC(=O)Nc2ccc(-c3cccc4[nH]nc(N)c34)cc2)c1 [ABT-869]; conditions: top dose 1.024 µM; top dose inferred
Method: as §1

CP466722 = compound: COc1cc2ncnc(-n3nc(-c4ccccn4)nc3N)c2cc1OC [CP466722]; conditions: top dose 16 µM; top dose inferred
Method: as §1

CHIR-99021 = compound: Cc1cnc(-c2cnc(NCCNc3ccc(C#N)cn3)nc2-c2ccc(Cl)cc2Cl)[nH]1 [CHIR-99021]
Method: as §1

ABT-888 = compound: C[C@]1(c2nc3c(C(N)=O)cccc3[nH]2)CCCN1 [ABT-888]; conditions: top dose 5 µM; top dose inferred
Method: as §1

GSK269962A = compound: CCn1c(-c2nonc2N)nc2cnc(Oc3cccc(NC(=O)c4ccc(OCCN5CCOCC5)cc4)c3)cc21 [GSK269962A]; conditions: top dose 5 µM; screen: GDSC drug entry 1192; top dose inferred
Method: as §1

KU-55933 = compound: O=c1cc(-c2cccc3c2Sc2ccccc2S3)oc(N2CCOCC2)c1 [KU-55933]; conditions: top dose 10 µM
Method: as §1

[1] = top dose 2.56 µM, screen: GDSC drug entry 154
[2] = top dose 10 µM, screen: GDSC drug entry 1241, top dose inferred

Cell Line	AUC ((5Z)-7-Oxozeaenol)	IC50 ((5Z)-7-Oxozeaenol)	AUC (MPS-1-IN-1)	IC50 (MPS-1-IN-1)	AUC (Cytarabine)	IC50 (Cytarabine)	AUC (QL-X-138)	IC50 (QL-X-138)	AUC (Zibotentan)	IC50 (Zibotentan)	AUC (ABT-869)	IC50 (ABT-869)	AUC (CP466722)	IC50 (CP466722)	AUC (CHIR-99021; [1])	IC50 (CHIR-99021; [1])	AUC (CHIR-99021; [2])	IC50 (CHIR-99021; [2])	AUC (ABT-888)	IC50 (ABT-888)	AUC (GSK269962A)	IC50 (GSK269962A)	AUC (KU-55933)	IC50 (KU-55933)
42-MG-BA (glioma, adherent)	0.659	1.78 µM	0.911	> 20 µM	0.797	1.02 µM	0.839	7.67 µM	0.984	> 20 µM	0.968	> 1.02 µM	0.922	> 16 µM	0.966	> 2.56 µM	0.922	> 10 µM	0.976	> 5 µM	0.896	> 5 µM	0.963	> 10 µM
CADO-ES1 (Ewing sarcoma, suspension)	0.794	4.7 µM	0.75	6.64 µM	0.889	> 2 µM	0.74	3.16 µM	0.988	> 20 µM	0.987	> 1.02 µM	0.605	1.95 µM	–	–	0.967	> 10 µM	0.98	> 5 µM	0.828	3.15 µM	0.958	> 10 µM
COR-L321 (lung, suspension)	0.917	> 10 µM	0.904	> 20 µM	0.988	> 2 µM	0.749	3.31 µM	0.989	> 20 µM	0.98	> 1.02 µM	0.728	4.46 µM	–	–	0.988	> 10 µM	0.98	> 5 µM	0.924	> 5 µM	0.977	> 10 µM
D-423MG (glioma, adherent)	0.54	0.821 µM	0.9	> 20 µM	0.624	–	0.536	0.822 µM	0.973	> 20 µM	0.97	> 1.02 µM	0.683	3.66 µM	–	–	0.851	> 10 µM	0.972	> 5 µM	0.722	1.55 µM	0.893	> 10 µM
D-566MG (glioma, adherent)	0.679	1.96 µM	0.902	> 20 µM	0.633	0.29 µM	0.713	2.54 µM	0.981	> 20 µM	0.957	> 1.02 µM	0.757	5.44 µM	–	–	0.798	4.68 µM	0.969	> 5 µM	0.223	0.0492 µM	0.937	> 10 µM
DOV13 (ovary, adherent)	0.633	1.54 µM	0.968	> 20 µM	0.662	0.38 µM	0.97	> 10.2 µM	0.976	> 20 µM	0.979	> 1.02 µM	0.911	> 16 µM	–	–	0.938	> 10 µM	0.984	> 5 µM	0.883	> 5 µM	0.951	> 10 µM
ECC10 (stomach, suspension)	0.765	3.83 µM	0.899	> 20 µM	0.908	> 2 µM	0.722	2.82 µM	0.982	> 20 µM	0.975	> 1.02 µM	0.827	10.3 µM	0.985	> 2.56 µM	0.984	> 10 µM	0.97	> 5 µM	0.937	> 5 µM	0.949	> 10 µM
EMC-BAC-1 (lung adenocarcinoma, adherent)	0.758	3.93 µM	0.735	6.51 µM	0.948	> 2 µM	0.787	5.12 µM	0.976	> 20 µM	0.948	> 1.02 µM	0.796	8.68 µM	–	–	0.918	> 10 µM	0.974	> 5 µM	0.861	> 5 µM	0.945	> 10 µM
EMC-BAC-2 (lung adenocarcinoma, adherent)	0.76	4.14 µM	0.936	> 20 µM	0.609	0.264 µM	0.512	0.694 µM	0.981	> 20 µM	0.975	> 1.02 µM	0.721	4.81 µM	–	–	0.885	> 10 µM	0.974	> 5 µM	0.712	1.4 µM	0.981	> 10 µM
ESO26 (oesophagus, adherent)	0.851	6.96 µM	0.894	> 20 µM	0.776	0.749 µM	0.782	4.03 µM	0.987	> 20 µM	0.981	> 1.02 µM	0.852	11.3 µM	–	–	0.984	> 10 µM	0.989	> 5 µM	0.923	> 5 µM	0.987	> 10 µM
ESO51 (oesophagus, semi-adherent)	0.85	> 10 µM	0.932	> 20 µM	0.78	1.2 µM	0.789	6.76 µM	0.98	> 20 µM	0.98	> 1.02 µM	0.916	> 16 µM	–	–	0.966	> 10 µM	0.961	> 5 µM	0.944	> 5 µM	0.974	> 10 µM
